Assay results: publication PMC4336329 (PLoS ONE, 2015)
The campaign covered roughly 310,000 compounds. About 14,000 (4.5%) showed an effect of 50% or more. The effect is printed as a negative number. The list shows a part of the results.

What follows are compounds tested against human ether-à-go-go-related gene (hERG) potassium channel (human, UniProt Q12809) (assay: primary screen, population patch clamp on CHO cells stably expressing hERG).
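Note: peak tail current of the secondary pulse compared with the same well before compound.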

Chain of human ether-à-go-go-related gene (hERG) potassium channel (Q12809 whole entry, looked up): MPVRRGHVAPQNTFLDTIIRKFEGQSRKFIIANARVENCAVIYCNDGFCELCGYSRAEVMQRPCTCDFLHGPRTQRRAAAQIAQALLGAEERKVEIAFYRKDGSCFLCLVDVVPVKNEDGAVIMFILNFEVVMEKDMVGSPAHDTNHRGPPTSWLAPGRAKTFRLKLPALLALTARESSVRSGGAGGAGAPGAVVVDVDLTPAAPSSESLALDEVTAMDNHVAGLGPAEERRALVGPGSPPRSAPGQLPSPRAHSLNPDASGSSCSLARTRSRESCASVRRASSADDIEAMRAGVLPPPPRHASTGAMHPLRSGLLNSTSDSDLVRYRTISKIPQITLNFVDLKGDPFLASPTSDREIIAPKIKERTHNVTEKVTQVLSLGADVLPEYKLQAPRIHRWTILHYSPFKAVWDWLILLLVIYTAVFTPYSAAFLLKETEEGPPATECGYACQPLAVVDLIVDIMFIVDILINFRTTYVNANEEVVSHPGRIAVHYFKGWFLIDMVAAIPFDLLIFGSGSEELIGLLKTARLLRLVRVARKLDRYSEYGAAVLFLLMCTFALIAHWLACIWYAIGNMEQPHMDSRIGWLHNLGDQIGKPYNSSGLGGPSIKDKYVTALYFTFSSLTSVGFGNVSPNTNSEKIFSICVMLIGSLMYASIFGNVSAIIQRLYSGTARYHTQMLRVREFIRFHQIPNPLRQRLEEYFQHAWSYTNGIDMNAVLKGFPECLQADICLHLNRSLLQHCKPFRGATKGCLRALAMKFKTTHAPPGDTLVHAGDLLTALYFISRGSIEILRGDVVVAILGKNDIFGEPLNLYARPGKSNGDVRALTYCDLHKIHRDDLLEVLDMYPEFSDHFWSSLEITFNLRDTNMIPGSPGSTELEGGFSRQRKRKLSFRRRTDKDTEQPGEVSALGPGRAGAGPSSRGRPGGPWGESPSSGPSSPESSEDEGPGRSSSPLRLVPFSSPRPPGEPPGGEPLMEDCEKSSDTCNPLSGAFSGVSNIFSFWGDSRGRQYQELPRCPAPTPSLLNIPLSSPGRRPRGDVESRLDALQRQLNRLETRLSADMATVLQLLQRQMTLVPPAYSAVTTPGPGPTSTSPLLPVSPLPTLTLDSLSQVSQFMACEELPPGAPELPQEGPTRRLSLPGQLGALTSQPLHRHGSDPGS

Structure (SMILES)	hERG current change (%, negative = inhibition) at 10uM
CC(C)C(NC(=O)c1ccccc1)C(=O)N1CCCCCC1 (stereo not shown)	27.3%
CC(=O)N1CCC(N(CCN2CCOCC2)C(=S)Nc2ccc(C)cc2)CC1	-6.52%
CNS(=O)(=O)c1cccc(C(=O)OCC(=O)c2cc3ccccc3o2)c1	15.2%
COC(=O)NN1C(=O)C(c2ccccc2)=C(c2ccc(Cl)cc2)C1=O	-5.88%
O=C(c1ccco1)N1CCN(C(c2ccc(Cl)cc2)c2nnnn2Cc2ccccc2)CC1 (stereo not shown)	-68.2%
Cc1ccc(C(=O)N(CC(=O)NC2CCCCC2)c2ccccc2F)s1	-13.9%
COc1cccc(N2CCN(c3ccc4nnc(CCC(=O)Nc5ccc(F)cc5F)n4n3)CC2)c1	-38.2%
O=S(=O)(/N=C(/c1ccc(F)cc1)N1CCCCC1)c1ccc(Cl)cc1	-11.5%
CCCCN(C(=O)CSc1nnnn1C)c1c(N)n(Cc2ccccc2)c(=O)[nH]c1=O	7.29%
Cc1nc2cc(-c3ccccc3)nn2c(C)c1CCC(=O)N1CCC2(CC1)OCCO2	-47.2%
FC(F)(F)c1cccc(OCc2noc(-c3ccsc3)n2)c1	-3.78%
COc1ccc(OC)c(NC(=O)c2cccnc2)c1	17.4%
CCCCN(Cc1ccc(C(=O)N[C@H](C(=O)O)C(C)C)cc1)C(=O)C(c1ccccc1)c1ccccc1	1.77%
Cc1c(C#N)c2ncnc(N)c2n1-c1ccccc1	5.64%
CCN(c1ccccc1)S(=O)(=O)c1cc(CN2C(=O)c3cccnc3C2=O)ccc1OC	-14.2%
O=C(NCc1ccccc1)N[C@@H](Cc1c[nH]c2ccccc12)C(=O)O	0.657%
CCNc1nnc(-c2ccccc2OC)s1	-16.4%
O=C(NCc1ccccn1)Nc1ccc2c(c1)OCO2	20.2%
Cn1c(=O)oc2cc(S(=O)(=O)N3CCCC3)ccc21	10.3%
Fc1ccc(/C=N/N2CCOCC2)c(F)c1	54.5%
COC(=O)C1=C(C(=O)OC)C(c2cc(Br)ccc2O)c2sc(=O)[nH]c2S1 (stereo not shown)	-47.6%
COC(=O)c1cc(S(=O)(=O)NCCc2ccc(SC)cc2)c[nH]1	-2.63%
O=c1[nH]c(N2CCOCC2)cc2ccccc12	2.45%
O=C1CCC(C(=O)Nc2cccc(S(=O)(=O)N3CCOCC3)c2)N1 (stereo not shown)	-6.26%
COc1ccc(NC(=O)CC2C(=O)N(c3ccccc3)C(=O)N2Cc2ccco2)cc1 (stereo not shown)	-19.3%
Cc1cc(Cl)ccc1OCC(=O)N/N=C/c1ccncc1	-14.9%
CC(C)COc1ccc(-c2nnn(CC(=O)N3CCCC3)n2)cc1	-3.91%
CC(=O)c1oc2ccccc2c1NC(=O)COC(=O)c1ccc(-n2nc(C)cc2C)cc1	27.4%

Structure (SMILES)	hERG current change (%, negative = inhibition) at 10uM
O=C(N/N=C1\CCCc2ccccc21)C(O)c1ccccc1 (stereo not shown)	-23.9%
Cc1ccc(CNC(=O)C(OC(=O)c2cccs2)C(C)C)cc1 (stereo not shown)	-2.43%
CN(C)c1ccc(C(=O)OCC(=O)N2CCOCC2)cc1	2.21%
COc1ccccc1Oc1ncnc2c1cnn2-c1ccccc1	8%
CNC(=S)N1C2CCC1CC(NC(=O)NC13CC4CC(CC(C4)C1)C3)C2 (stereo not shown)	-1.23%
O=C(Nc1nc(-c2cccnc2)cs1)c1ccc([N+](=O)[O-])cc1	-4.99%
CN(Cc1c(C(=O)N/N=C/c2cccc(O)c2)nnn1-c1nonc1N)c1ccccc1	-0.896%
COc1ccc2c(c1)c1ncn(Cc3ccccn3)c(=O)c1n2C	-4.74%
Cc1ccc(NC(=O)/C=C/c2cccc(C(F)(F)F)c2)cc1	16.8%
COc1cccc(OC)c1OCC(O)CN1CCN(c2ccccc2F)CC1.Cl (stereo not shown)	-12.2%
COc1cc2c(cc1OC)CN(C(=O)CSc1nc3[nH]ncc3c(=O)n1-c1ccccc1)CC2	-17.3%
COc1cccc(C2=CC(=O)C[C@H](c3ccc(OC)c(OC)c3)C2)c1	-40%
CCOc1cc(Br)c(/C=C2/C(=O)N(C)C(=S)N2CC(=O)OC)cc1OC	4.94%
CC(=O)c1c(C)[nH]c(C(=O)NCC2CCCCC2)c1C	-4.62%
Cc1nc(N2CCN(c3ccccn3)CC2)c2c(C)c(C(=O)Nc3ccc(Br)cc3C)sc2n1	11.6%
CCn1c(N2CCN(C(=O)C34CC5CC(CC(C5)C3)C4)CC2)nc2ccccc21	-37.9%
CN1/C(=C\C(=O)C[n+]2ccc(C(=O)c3ccccc3)cc2)C(C)(C)c2ccccc21.[Cl-]	2.61%
CCOc1ccccc1NC(=O)CSc1nc(=O)n(CCCN2CCOCC2)c2c1CCC2	-26.4%
CC(C)CCCC(C)NC(=O)c1cc(S(=O)(=O)N2CCCCC2)ccc1N1CCOCC1 (stereo not shown)	-36.8%
Cc1cccc2cc(CN(CC3CCCO3)C(=O)NC3CCCCC3)c(=O)[nH]c12 (stereo not shown)	-9.99%
Cc1ccc(C)c(N2N=C(C(=O)N(CC(C)C)c3c(N)n(Cc4ccccc4)c(=O)[nH]c3=O)CCC2=O)c1	13.6%
CCn1c(=O)n(CC)c2cc(N3CCCC3)c(NC(=O)c3ccc(C)cc3)cc21	1.24%
COc1ccccc1C(=O)NCCSCc1ccccc1Cl	-15.4%
CCN1CCN(C(=O)c2ccccc2NC(=O)c2ccc(Cl)cc2)CC1	-45.8%
COc1cccc(NC(=O)COc2c(F)c(F)c(C(F)(F)F)c(F)c2F)c1	8.02%
CCN1C(=O)/C(=C/C=C2/Sc3ccccc3N2CCO)SC1=S	15.3%
CCc1ccc(-c2nn(Cc3ccccc3)cc2/C=C/C(=O)O)cc1	17.9%
